Data: the supplement of paper PMC4894684
Structures can show the parent of a compound that is named as a salt. ± gives the standard deviation of the averaged measurements. Screen size: about 1,000 compounds; about 15 (2%) showed an effect of 50% or more. Some of the results follow.

system: HFF; test: uninfected host cell viability relative to vehicle control; higher = less host cell toxicity; conditions: 5 µM; 72 h; oxygen 21 %
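Note: confluent HFF monolayers, run in parallel with the Toxoplasma growth screen as a host toxicity counterscreen.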

| Structure (SMILES) | uninfected host cell viability [%] |
| --- | --- |
| CCCCOC(=O)c1cc2c(cn1)[nH]c1ccccc12 | 81.5 ± 0.91 |
| O=S(=O)(c1cccc2cnccc12)N1CCCNCC1 [Fasudil hydrochloride] | 90.57 ± 0.53 |
| CCc1nn(CCCN2CCN(c3cccc(Cl)c3)CC2)c(=O)n1CCOc1ccccc1 [Nefazodone hydrochloride] | 86.6 ± 1.3 |
| CCC(=O)O[C@]1(C(=O)SCF)[C@H](C)C[C@H]2[C@@H]3C[C@H](F)C4=CC(=O)C=C[C@]4(C)[C@@]3(F)[C@@H](O)C[C@@]21C [Fluticasone propionate] | 92.6 ± 2.5 |
| CCc1cc(Cl)c(OC)c(C(=O)NC[C@@H]2CCCN2CC)c1O [Eticlopride hydrochloride] | 87.7 ± 5.2 |
| NS(=O)(=O)c1nn2cc(-c3ccccc3)nc2s1 | 107 ± 5.2 |
| C=CCN1CCc2cc(O)c(O)cc2C(c2ccccc2)C1 (stereo unspecified) | 94.2 ± 3.8 |
| O=C(NCCCCCCNC(=O)ON=C1CCCCC1)ON=C1CCCCC1 | 89.5 ± 1.6 |
| c1ccc2sc(N3CCN(Cc4ccc5c(c4)OCO5)CC3)nc2c1 [2-[1-(4-Piperonyl)piperazinyl]benzothiazole] | 88.2 ± 0.95 |
| O=C(c1ccc(F)cc1)C1CCN(CCn2c(=S)[nH]c3ccccc3c2=O)CC1 [Altanserin hydrochloride] | 83.2 ± 2.8 |
| Cc1ccc(Sc2cncc3sc(C(N)=O)cc23)cc1 | 77.27 ± 0.73 |
| O=C(O)c1cc(=O)c2ccccc2[nH]1 [Kynurenic acid] | 93.06 ± 0.4 |
| N[C@H](C(=O)O)c1ccc(C(=O)O)c(O)c1 [(S)-4-Carboxy-3-hydroxyphenylglycine] | 85.73 ± 0.091 |
| O=c1cc(N2CCOCC2)oc2c(-c3ccccc3)cccc12 | 81.6 ± 2.9 |
| CC(=Nc1ccccc1N)c1c(C)cc(=O)n(O)c1O | 96.6 ± 2.4 |
| OCC(CO)N[C@H]1C[C@](O)(CO)[C@@H](O)[C@H](O)[C@H]1O [Voglibose] | 94.9 ± 2.8 |
| COc1ccc(-c2oc3cc(OC)ccc3c2C(=O)c2ccc(C#N)cc2)cc1 | 108 ± 1.2 |
| Cc1nc2sccn2c(=O)c1CCN1CCC(=C(c2ccc(F)cc2)c2ccc(F)cc2)CC1 [Ritanserin] | 87.9 ± 4.6 |
| CN1CCN2c3ccccc3Cc3ccccc3C2C1 (stereo unspecified) [Mianserin hydrochloride] | 84.2 ± 0.26 |
| CCS(=O)(=O)N(C)[C@H]1c2cc(C#N)ccc2OC(C)(C)[C@@H]1O (racemic) [Chromanol 293B] | 91.3 ± 6.7 |
| CC(C)SC(=N)N [S-Isopropylisothiourea hydrobromide] | 86.5 ± 5.4 |
| CCc1ccc(OCc2ccccc2C(=O)Nc2ccc3nc(C)cc(N)c3c2)cc1 | 15 ± 0.61 |
| CC1(COc2ccc(CC3SC(=O)NC3=O)cc2)CCCCC1 (stereo unspecified) [Ciglitazone] | 88.8 ± 1.9 |

| Structure (SMILES) | uninfected host cell viability [%] |
| --- | --- |
| COc1ccc(Br)cc1S(=O)(=O)NC(=O)/C=C/c1ccccc1Cc1ccc2ccccc2c1 | 88.7 ± 4.6 |
| CN1CCN(C(=O)c2nc3ccc(Cl)cc3[nH]2)CC1 | 86.1 ± 1.3 |
| CN(C(=O)CCCOc1ccc2[nH]c(=O)ccc2c1)C1CCCCC1 [Cilostamide] | 96.4 ± 5.6 |
| NC(C(=O)O)c1ccc(C(=O)O)c(C(=O)O)c1 (stereo unspecified) | 83.7 ± 3.5 |
| O=C(O)c1ccc(C=C2SC(=S)N(c3cccc(C(F)(F)F)c3)C2=O)cc1 | 87.8 ± 0.91 |
| CCO/C(O)=C1\C(C)=NC(c2ccccc2)=C(C(=O)OCc2ccc([N+](=O)[O-])cc2)C1C#Cc1ccccc1 (stereo unspecified) | 89.5 ± 0.55 |
| CC12CC3CC(C)(C1)CC(N)(C3)C2 [Memantine hydrochloride] | 82.3 ± 1.4 |
| COC(=O)[C@H]1[C@H]2C[C@H]3c4[nH]c5ccccc5c4CCN3C[C@H]2CC[C@@H]1O [Rauwolscine hydrochloride] | 92.5 ± 6 |
| COP(=O)(OC)OC(c1ccc(Cl)cc1)P(=O)(OC)OC (stereo unspecified) | 89.4 ± 8.1 |
| CC(C)NCC(O)COc1cccc2[nH]ccc12 (stereo unspecified) [Pindolol] | 86.3 ± 1.6 |
| CC(C)C(=O)c1c(C(C)C)nn2ccccc12 [Ibudilast] | 99.2 ± 1.4 |
| Cc1ccc(C(=O)Cn2c3c(sc2=N)CCCC3)cc1 [Pifithrin- α hydrobromide] | 88.7 ± 2 |
| Nc1nc(NCC2CCC(CNS(=O)(=O)c3cccc4ccccc34)CC2)nc2ccccc12 (stereo unspecified) | 58.6 ± 2.7 |
| Cn1nnc2c(C(N)=O)ncn2c1=O [Temozolomide] | 88.2 ± 1.5 |
| C=C1C(=O)O[C@H]2[C@H]1CC/C(C)=C/CC[C@@]1(C)O[C@@H]21 [Parthenolide] | 111 ± 3.5 |
| O=C1NC(c2cccc([N+](=O)[O-])c2)=CCN1c1ccccc1O [Icilin] | 90 ± 2.6 |
| CCCN(CC1CC1)c1nc(C)nc(Nc2c(Cl)cc(Cl)cc2Cl)c1Cl | 91.8 ± 3.6 |
| CCCNC(=O)N1N=C(c2ccc(N)cc2)c2cc3c(cc2C1C)OCO3 (stereo unspecified) | 88.9 ± 3.7 |
| CC(C(O)c1ccc(O)cc1)N1CCC(Cc2ccccc2)CC1 (stereo unspecified) [Ifenprodil hemitartrate] | 85.74 ± 0.15 |
| c1ccc2cc(C3=NCCN3)ncc2c1 [BU 226 hydrochloride] | 86.34 ± 0.45 |
| Cc1ccc(OCC(O)C(C)NC(C)C)c2c1CCC2 (stereo unspecified) [ICI-118,551 hydrochloride] | 82.7 ± 2.3 |
| CCCn1c(=O)c(C)cn2nc(N)nc12 | 84 ± 2.8 |
| CCN(c1ccccc1)c1cc(=NC)n(C)c(C)n1 | 92.2 ± 1.3 |

| Structure (SMILES) | uninfected host cell viability [%] |
| --- | --- |
| CN1CCN2c3ncccc3Cc3ccccc3C2C1 (stereo unspecified) [Mirtazepine] | 85.7 ± 4 |
| CCCOc1ccccc1-c1nc2[nH]nnc2c(=O)[nH]1 [Zaprinast] | 85.7 ± 3.4 |
| COc1cc(SC)ccc1C(=O)N1CCC(Cc2ccccc2)CC1 | 97.9 ± 1.6 |
| CC#C[C@]1(O)CC[C@H]2[C@@H]3CCC4=CC(=O)CCC4=C3[C@@H](c3ccc(N(C)C)cc3)C[C@@]21C [Mifepristone] | 98.4 ± 3.2 |
| COc1ccc(Cl)cc1C(=O)NCCc1ccc(S(=O)(=O)NC(=O)NC2CCCCC2)cc1 [Glibenclamide] | 88.3 ± 5.3 |
| CCN(CC)CCOCCOC(=O)C1(c2ccccc2)CCCC1 [Carbetapentane citrate] | 89.7 ± 1.5 |
| O=c1nc2ccccc2c2n1CC(CN1CCN(c3ccccc3)CC1)N2 (stereo unspecified) | 87.5 ± 1.9 |
| COc1cc(NC(=O)c2ccccn2)ccc1Cl | 95.9 ± 2.8 |
| O=c1c(O)c(-c2ccc(O)cc2)oc2cc(O)cc(O)c12 [Kaempferol] | 83.5 ± 1.3 |
| N#C/C(=C(/N)Sc1ccc(N)cc1)c1ccccc1C(F)(F)F | 87.02 ± 0.63 |
| COc1cc(OC)c(NC(=O)Nc2cc(C)on2)cc1Cl | 82.4 ± 2.5 |
| Nc1nc2c(cnn2CCc2ccccc2)c2nc(-c3ccco3)nn12 | 96.8 ± 2.3 |
| COCCNC(=O)COc1ccc(OCCNC[C@H](O)COc2ccccc2)cc1 [ZD 7114 hydrochloride] | 83.8 ± 2.3 |
| CN[C@H]1CC[C@@H](c2ccc(Cl)c(Cl)c2)c2ccccc21 [Sertraline hydrochloride] | 90.3 ± 2.9 |
| CCOC(=O)C1=C(C)NC(=S)NC1c1cccc(O)c1 (stereo unspecified) [Monastrol] | 84.4 ± 1.9 |
| CC(C)[N+]1(C)[C@@H]2CC[C@H]1C[C@@H](OC(=O)C(CO)c1ccccc1)C2 (stereo partly specified) [Ipratropium bromide] | 96.6 ± 2.7 |
| c1cc(CN2CCCCC2)cc(OCCCNc2nc3ccccc3s2)c1 [Zolantidine dimaleate] | 81.6 ± 1.5 |
| CCOC(=O)[C@@H](C)Oc1cccc2c(=O)n(CC(=O)Nc3ccc4c(c3)OCCO4)ccc12 | 84.7 ± 0.99 |
| CC[C@H](CO)Nc1nc(Nc2cccc(-c3ccccn3)c2)c2ncn(C(C)C)c2n1 [(R)-DRF053 dihydrochloride] | 84.1 ± 1.9 |
| Cc1ccccc1N1CCN(S(=O)(=O)C[C@]23CC[C@H](C[C@@H]2NC(=O)[C@@H](N)CCS(C)(=O)=O)C3(C)C)CC1 [L-368,899 hydrochloride] | 87.07 ± 0.83 |
| CCOC(=O)C1=C(N)Oc2ccc(Br)cc2C1C(C#N)C(=O)OCC (stereo unspecified) | 89.6 ± 2.8 |
| CC(C)c1ccccc1S(=O)(=O)c1cc(N)c2ncccc2c1[N+](=O)[O-] | 73.2 ± 0.84 |
| Clc1ccc2nsnc2c1NC1=NCCN1 [Tizanidine hydrochloride] | 89.9 ± 4.1 |

| Structure (SMILES) | uninfected host cell viability [%] |
| --- | --- |
| COC1CCC(C(=O)c2ccc3nc4c(cc3c2)CCCO4)CC1 (stereo unspecified) | 88.7 ± 4.6 |
| COc1cc(CNC(=O)CCCC/C=C/C(C)C)ccc1O [(E)-Capsaicin] | 88.13 ± 0.59 |
| NC(=O)N/N=C/c1ccc(Oc2ccc(F)cc2)cc1 | 87.6 ± 3.6 |
| C[C@]12CC[C@@H]3c4ccc(O)cc4C[C@@H](CCCCCCCCC[S+]([O-])CCCC(F)(F)C(F)(F)F)[C@H]3[C@@H]1CC[C@@H]2O (stereo partly specified) | 93 ± 4.9 |
| C1CCC(N=C(NC23CC4CC(CC(C4)C2)C3)N2CCOCC2)CC1 | 86.31 ± 0.27 |
| O=C(/C=C/c1ccc(O)c(O)c1)O[C@H](Cc1ccc(O)c(O)c1)C(=O)O [Rosmarinic acid] | 80.3 ± 1 |
| CCC1(c2ccccc2)C(=O)NCNC1=O [Primidone] | 86.1 ± 0.94 |
| COc1ccc(Cl)cc1NC(=O)Nc1cc(C)nc2ccccc12 | 70.73 ± 0.28 |
| CC1OC2(CS1)CN1CCC2CC1 (stereo unspecified) [Cevimeline hydrochloride] | 102 ± 4.3 |
| NC[C@@H]1O[C@H](C23CC4CC(CC(C4)C2)C3)Cc2c1ccc(O)c2O | 85.3 ± 7.3 |
| CC1CCN(CC[C@H]2CCCN2S(=O)(=O)c2cccc(O)c2)CC1 | 88.52 ± 0.33 |
| Oc1cc2c(cc1O)C(c1ccccc1)CNCC2 (stereo unspecified) | 82 ± 1.6 |
| N#C/C(=C\c1ccc(O)c(O)c1)C(=O)NCCCCc1ccccc1 | 84.5 ± 2.7 |
| CN1CCN(CCc2ccc(Cl)c(Cl)c2)CC1 [BD 1063 dihydrochloride] | 101 ± 2.2 |
| Clc1cccc(Cl)c1NC1=NCCN1 [Clonidine hydrochloride] | 86.2 ± 4 |
| CCN(CC)c1ccc(/C=N/NC(=O)c2ccc(O)cc2)cc1 | 86.7 ± 5.1 |
| O=C(O)CCc1ccc(NCc2cccc(Oc3ccccc3)c2)cc1 | 89.2 ± 1.4 |
| CC(=O)O[C@@H]1C[C@H]2C(C)(C)C(=O)C=C[C@]2(C)[C@H]2CC[C@@]3(C)[C@H](c4ccoc4)OC(=O)[C@H]4O[C@]43[C@@]21C [Gedunin] | 107.2 ± 0.78 |
| O=C1NC(=O)c2cc(Nc3ccccc3)c(Nc3ccccc3)cc21 | 93.23 ± 0.27 |
| CN(CCCN1c2ccccc2CCc2ccccc21)CC(=O)c1ccc(Cl)cc1 [Lofepramine] | 89.6 ± 1.2 |
| Cc1noc(NS(=O)(=O)c2cccc3c(N(C)C)cccc23)c1C | 98.4 ± 1.2 |
| O=C(c1ccc(F)cc1)C1CCN(CCn2c(=O)[nH]c3ccccc3c2=O)CC1 [Ketanserin tartrate] | 83.4 ± 6.3 |
